# According to the supplement of paper PMC7726561:
# In all, about 1,100 sequences were measured (“thermal melting temperature (Tm) of peptide-HLA complex”: median about 58, lowest 2% from about 42 on). This is one part of the list.
# Biological target: HLA-A*02:01
# Experiment: thermal melting temperature (Tm) of peptide-HLA complex; higher = more thermostable pHLA complex
# Conditions: C1R-A*02:01
# 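Also: cell lysates heated 10 min at 37–73 °C, remaining pHLA pulled down with pan-class I antibody, peptides quantified by DIA-MS versus 37 °C, Tm where half the complex is lost.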
row,Sequence,thermal melting temperature
1,GLDIDGIYRV,57.5 °C
2,SVLVSPPAV,56.5 °C
3,ALADIVWRA,63 °C
4,RLPEAIEEV,57.9 °C
5,GLLENIRQL,58.9 °C
6,TVLPFVSTV,55.7 °C
7,NLFRAPIYL,49.9 °C
8,KLDDYVYYV,63.3 °C
9,VLSSRLAFA,58.9 °C
10,KLLEVNGVAL,57.2 °C
11,YLGRLAHEV,57.6 °C
12,ILDKKVEKV,61.1 °C
13,ALLERGYSL,60.4 °C
14,SIHDVTFQV,57.4 °C
15,KLGDFGLLV,60.4 °C
16,TLIGLSIKV,56.7 °C
17,SLLSGRISTL,49.1 °C
18,YISEENFRV,57.8 °C
19,VLLEEGEAQRL,51.8 °C

row,Sequence,thermal melting temperature
1,KLYNPENIYL,58.5 °C
2,ILLPRPPQV,64.3 °C
3,KIIDEDGLLNL,44 °C
4,FLRGPALELV,60 °C
5,ALDRDNFEL,47.8 °C
6,TQLGPPYHIL,51.3 °C
7,GVAESIHLWEV,60.5 °C
8,YLGPHIASV,61.9 °C
9,AMIELVERL,54 °C
10,FLTDSNNIKEV,60.6 °C
11,NIIPRFVQV,56.6 °C
12,GLTEALHFV,64.6 °C
13,TLWPEVQKL,55.3 °C
14,ALSEKLARL,58.7 °C
15,ALLGDLTKA,57.5 °C
16,TVLTQEAIITV,49.9 °C
17,ALLDRIVSV,64.2 °C
18,LLYQEGAKMAV,58.3 °C
19,VLSEENFKV,58.4 °C

row,Sequence,thermal melting temperature
1,ILLDQTVRV,61.5 °C
2,SLDAKEIYL,50.5 °C
3,LLQDKQFEL,58.9 °C
4,RIIDVVYNA,57.7 °C
5,RLFDDVPQV,64.7 °C
6,SLVDTPKQIQL,47.9 °C
7,SLLNPPETLNL,54.9 °C
8,VMQDPEFLQSV,59.6 °C
9,SLEQRLNEV,57.8 °C
10,ILDQKVALL,41.7 °C
11,KQYGNEVFL,55.7 °C
12,ILTEAIKAA,59.3 °C
13,RMISEELVAA,53.2 °C
14,FLPQGFPDSV,45.8 °C
15,GLKGRVFEV,61.3 °C
16,AMPALAPPEV,53.8 °C
17,QLAQFVHEV,62.3 °C
18,HLDESLVLL,49 °C
